Assay results reported in PubChem BioAssay AID1508642 (National Center for Advancing Translational Sciences (NCATS), 2021).
Out of some 43,000 compounds screened, about 200 (0.47%) were called active. This list was built around the results that the source calls inconclusive (neither active nor inactive); the mix of calls is not that of the screen. The call rests on the fitted dose curve; in most records, active means well fitted cell-killing curve with a large enough effect; inconclusive means small, poorly fitted or top-dose-only effect, or effect the other way; inactive means flat fitted curve, though single readings scatter. Potencies beside an inconclusive call are fits to weak or partial responses and may not hold up.

Assay: Cell viability qHTS assay in S16 Pmp22-F2sN cells; further: nearly all actives have a fitted effect of over 65% in size
Conditions: S16 Pmp22-F2sN Schwann cells (luciferase reporters placed in the Pmp22 gene) viability, CellTiter-Glo, 24 h; activity change, negative = cytotoxicity: at 57.5 µM (top of the series)
Procedure, shortened: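 S16 Schwann cells carrying the Pmp22-F2sN reporter, seeded in 1536-well format, were exposed to library compounds for 24 h at 37C. Viability was read as CellTiter-Glo luminescence after 15 min at room temperature.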
On the % scale 0 is the no-effect control and ±100 the full control effect; potency means the concentration at half of the fitted maximal effect; tags describe the fitted curve by direction and shape.

SMILES	Potency	activity change, negative = cytotoxicity
COc1ccc2c(c1)CCc1c(C(=O)Nc3c(C)nn(Cc4ccc(Cl)c(Cl)c4)c3C)noc1-2	inconclusive: 28.2 µM [cytotoxic, single point]	–
COc1cc(OC)c(NC(=O)NCc2ccc3c(c2)CCN3C(=O)c2ccccc2)cc1Cl	inconclusive: 2.82 µM [cytotoxic, partial curve, poor fit]	–
CC(=O)c1cc(C(=O)Nc2cc(C)cc(C)c2)c2ccccn12	inconclusive: 10 µM [rising, partial curve]	–
CCOc1ccc(CCNC(=O)C2COc3ccccc3C2)cc1OCC (configuration not stated)	inconclusive: 11.2 µM [cytotoxic, partial curve, poor fit]	–
O=C(Nc1nc2ccc(F)cc2s1)c1nc(S(=O)(=O)Cc2ccccc2)ncc1Cl	active: 6.31 µM	–
CCCCOc1ccc(CNC(=O)CCCN2C(=O)CSc3c2c(C)nn3-c2ccccc2)cc1	inconclusive: 35.5 µM [cytotoxic, single point]	–
CC(C)c1ccc(C2N=C(N)Nc3nc4ccccc4n32)cc1 (configuration not stated)	inconclusive: 10 µM [rising, partial curve]	–
COc1cc(OC)cc(C(=O)NCC(c2cccs2)S(=O)(=O)c2ccc(F)c(C)c2)c1 (configuration not stated)	–	inactive: 14.7%
COc1ccccc1NC(=O)CN1C(=O)C2(SCC(=O)N2c2ccc(C)c(C)c2)c2ccccc21 (configuration not stated)	inconclusive: 12.6 µM [cytotoxic, partial curve]	–
Cc1ccc(N2C(=O)c3[nH]nc(-c4ccc(Cl)cc4)c3C2c2ccc(F)cc2)cc1 (configuration not stated)	inconclusive: 39.8 µM [cytotoxic, single point]	–
COc1cc(Br)c(/C=C(\C#N)c2nc3ccccc3[nH]2)cc1OC	inconclusive: 4.47 µM [rising, partial curve, poor fit]	–
Cc1ccc(C)c(N2CCN(CCCNC(=O)Nc3cc(Cl)ccc3C)CC2)c1	inconclusive: 35.5 µM [cytotoxic, single point]	–
CCc1ccccc1NC(=O)C1CCC(CNS(=O)(=O)c2ccc3c(c2)CC(C)N3C(C)=O)CC1 (configuration not stated)	inconclusive: 28.2 µM [cytotoxic, partial curve, poor fit]	–
COC(=O)c1cccc(Nc2c(-c3ccc(O)c(OC)c3)nc3nc[nH]n23)c1	inconclusive: 39.8 µM [cytotoxic, single point]	–
CCc1ccc(NC(=O)CSc2nc3n[nH]c(C)c3c(=N)n2-c2ccccc2C)cc1	inconclusive: 39.8 µM [cytotoxic, single point]	–
CCCNC(=O)C1CCN(S(=O)(=O)c2ccc3c(c2)CCCN3C(C)=O)CC1	inconclusive: 39.8 µM [cytotoxic, partial curve, poor fit]	–
Cc1oc(-c2ccc(Cl)cc2)nc1CS(=O)CC(=O)NCc1ccc(Cl)cc1 (configuration not stated)	–	inactive: 3.56%
O=C(Nc1cccc(C(=O)N2CCN(c3ccc(Cl)cc3)CC2)c1)c1nsc2ccccc12	inconclusive: 28.2 µM [cytotoxic, single point]	–
CCOC(=O)c1cc(C)n(CC2CCC(C(=O)Nc3ccc(Cl)cc3)CC2)c1C (configuration not stated)	inconclusive: 10 µM [cytotoxic, partial curve, poor fit]	–

SMILES	Potency	activity change, negative = cytotoxicity
COc1cc(C2N=C(N)Nc3nc4ccccc4n32)ccc1OCCC(C)C (configuration not stated)	inconclusive: 6.31 µM [rising, single point]	–
O=S(=O)(c1ccccc1)n1nc(-c2ccccc2)nc1NCc1ccc(Cl)cc1	–	inactive: 2.94%
Cc1cc(N2CCCCC2)nc2ccc(NC(=O)/C=C/c3ccccc3OC(C)C)cc12	–	inactive: 3.57%
COc1ccc(NCc2cc3cc4c(cc3n(CC(=O)Nc3ccc(C)cc3)c2=O)OCO4)cc1	–	inactive: 3.07%
CCN(CC)S(=O)(=O)c1ccc2c(c1)N(CC(=O)N1CCN(c3ccccc3F)CC1)C(=O)CO2	inconclusive: 31.6 µM [rising, partial curve, poor fit]	–
O=C(NCc1cccc(Cl)c1)C(=O)Nc1ccc2nc3n(c(=O)c2c1)CCCCC3	inconclusive: 4.47 µM [rising, partial curve, poor fit]	–
CC1Cc2cc(S(=O)(=O)NCc3ccccc3Cl)ccc2N1C(=O)C1CCC1 (configuration not stated)	inconclusive: 28.2 µM [cytotoxic, single point]	–
CCC1=Nc2cc(C(=O)NC3CCCC3)ccc2Sc2ccc(Br)cc21	inconclusive: 7.08 µM [cytotoxic, full curve]	–
Cc1noc(/C=C/c2ccco2)c1S(=O)(=O)N1CCC(C(=O)Nc2ccc(F)c(Cl)c2)CC1	inconclusive: 2.82 µM [cytotoxic, full curve, poor fit]	–
Cc1ccc2c(=O)c(C(=O)c3cccc(Cl)c3)cn(CC(=O)NCc3ccc(F)cc3)c2n1	inconclusive: 17.8 µM [cytotoxic, single point]	–
Cc1ccc2sc(N3CCN(C(=O)CCS(=O)(=O)c4ccc(F)cc4)CC3)nc2c1C	inconclusive: 3.98 µM [cytotoxic, full curve]	–
O=C(Nc1ccc(F)c(Cl)c1)c1cc(S(=O)(=O)N2CCCc3ccccc32)ccc1F	inconclusive: 20 µM [cytotoxic, partial curve, poor fit]	–
CCOc1ccccc1CNC(=O)c1cc(-c2ccc(OC)cc2)nc2ccc(C(C)C)cc12	inconclusive: 39.8 µM [cytotoxic, single point]	–
COc1ccc(/C=C/c2noc(-c3ccccc3O)n2)cc1OC	inconclusive: 35.5 µM [rising, partial curve, poor fit]	–
COc1ccc(-n2nc3c(N4CCCC(C(=O)NCCc5ccc(C)cc5)C4)nnc(C)c3c2C)cc1 (configuration not stated)	inconclusive: 39.8 µM [cytotoxic, single point]	–
COc1cc2ccccc2cc1C(=O)Nc1ccc2oc(-c3cccc(Cl)c3Cl)nc2c1	inconclusive: 6.31 µM [cytotoxic, single point]	–
CC(C)(C)OC(=O)N1CCC(c2c(C(=O)NCCN3CCC(Cc4ccccc4)CC3)cnn2-c2ccccc2)CC1	inconclusive: 39.8 µM [cytotoxic, single point]	–
Cc1ccccc1Nc1c(-c2ccc(N3CCOCC3)cc2)nc2ncccn12	–	inactive: -1.97%
